From PubChem BioAssay AID1347165 (National Center for Advancing Translational Sciences (NCATS), 2019)
About 5,700 (2.6%) of roughly 220,000 compounds were called active. Inconclusive results, whose numbers are uncertain, are shown with a selection of clear calls. The call rests on the fitted dose curve; in most records, active means well fitted inhibition curve with a large enough effect; inconclusive means small, poorly fitted or top-dose-only effect; inactive means no such curve, though single readings can be large or run the other way. Potencies of inconclusive entries are doubtful fits and often do not repeat.

target: Lysine-specific demethylase 5B (Homo sapiens) (UniProt Q9UGL1); test: Primary screen for KDM5B Histone Demethylases FDH-coupled qHTS; details: FDH-coupled NADH fluorescence (FDH is formaldehyde dehydrogenase); activity change, negative = inhibition: at 57.7 µM (top of the series) unless noted; further: nearly all actives have a fitted effect of over 70% in size; on activity change, negative = inhibition: 0% is about no effect
Chain of UniProt Q9UGL1 (Q9UGL1 whole entry, looked up): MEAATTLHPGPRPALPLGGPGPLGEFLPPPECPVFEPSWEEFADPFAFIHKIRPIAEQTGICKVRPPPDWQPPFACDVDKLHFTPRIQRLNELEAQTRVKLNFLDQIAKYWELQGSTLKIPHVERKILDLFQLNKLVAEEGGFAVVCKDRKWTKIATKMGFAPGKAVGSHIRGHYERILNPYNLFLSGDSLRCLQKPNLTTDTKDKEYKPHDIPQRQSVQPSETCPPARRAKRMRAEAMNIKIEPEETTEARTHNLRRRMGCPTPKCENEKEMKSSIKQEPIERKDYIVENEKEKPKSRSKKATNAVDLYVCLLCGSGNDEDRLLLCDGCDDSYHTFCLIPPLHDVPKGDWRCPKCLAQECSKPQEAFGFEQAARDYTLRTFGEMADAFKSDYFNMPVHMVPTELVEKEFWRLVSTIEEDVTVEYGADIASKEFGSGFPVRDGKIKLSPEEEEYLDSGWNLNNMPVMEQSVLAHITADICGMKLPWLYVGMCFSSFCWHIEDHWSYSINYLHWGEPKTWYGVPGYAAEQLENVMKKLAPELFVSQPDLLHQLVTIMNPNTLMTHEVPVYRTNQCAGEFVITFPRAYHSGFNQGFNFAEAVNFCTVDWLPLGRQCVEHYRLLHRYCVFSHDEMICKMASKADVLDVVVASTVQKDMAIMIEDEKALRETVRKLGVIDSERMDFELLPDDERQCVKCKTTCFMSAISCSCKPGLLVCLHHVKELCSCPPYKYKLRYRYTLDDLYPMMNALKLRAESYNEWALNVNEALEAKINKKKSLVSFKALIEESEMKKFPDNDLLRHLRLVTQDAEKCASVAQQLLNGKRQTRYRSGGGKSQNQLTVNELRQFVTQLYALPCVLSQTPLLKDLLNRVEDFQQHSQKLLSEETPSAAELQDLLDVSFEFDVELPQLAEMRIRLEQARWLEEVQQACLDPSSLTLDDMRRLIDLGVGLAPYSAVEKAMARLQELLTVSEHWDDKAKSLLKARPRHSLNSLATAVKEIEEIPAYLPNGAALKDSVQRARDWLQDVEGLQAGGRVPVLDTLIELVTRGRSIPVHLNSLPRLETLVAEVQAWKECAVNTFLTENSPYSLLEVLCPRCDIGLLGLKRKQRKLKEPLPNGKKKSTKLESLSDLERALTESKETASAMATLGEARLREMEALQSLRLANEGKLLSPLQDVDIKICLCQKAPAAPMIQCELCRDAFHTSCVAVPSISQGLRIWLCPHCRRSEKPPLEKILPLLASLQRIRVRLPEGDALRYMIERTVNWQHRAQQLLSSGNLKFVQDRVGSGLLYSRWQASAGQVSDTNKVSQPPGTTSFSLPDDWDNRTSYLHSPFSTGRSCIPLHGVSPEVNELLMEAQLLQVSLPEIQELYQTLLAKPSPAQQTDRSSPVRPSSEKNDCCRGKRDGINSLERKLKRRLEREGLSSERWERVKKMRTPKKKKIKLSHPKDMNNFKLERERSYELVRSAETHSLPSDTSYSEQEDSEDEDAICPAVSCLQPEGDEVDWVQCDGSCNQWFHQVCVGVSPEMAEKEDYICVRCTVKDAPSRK
Summary of the method: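 qHTS format, multiple compound concentrations. Buffer 50 mM HEPES pH 7.5/0.01% Tween-20; 200 nM KDM5BΔAP final; 10 min compound preincubation; substrate-mix levels 12.5 µM peptide, 25 µM α-KG, 0.25 mM NAD⁺; 30 min RT; ΔRFU.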
Potency means the concentration at half of the fitted maximal effect; tags describe the fitted curve by direction and shape.

SMILES	activity change, negative = inhibition	Potency
O=C(Cc1ccccc1)Nc1ccnn1C1CCN(Cc2cc3ccccc3s2)CC1	inactive: -7.03%	–
COCC(=O)Nc1ccc(-c2noc([C@@H]3CCCN3CC(C)(C)C)n2)cn1	–	inconclusive: 35.5 µM [inhibitor, single point]
Cc1nc2c(NS(=O)(=O)c3cccc(C#N)c3)cccn2n1	–	inconclusive: 10 µM [inhibitor, partial curve, poor fit]
O=C1NCCCCCCN(S(=O)(=O)Cc2ccccc2F)[C@H]2CCC[C@@H]12	inactive: 13.6%	–
CCOCC(=O)Nc1nn(-c2cccc(F)c2)c2cccc(N3CCOC3=O)c12	–	active: 28.2 µM
COc1cc(/C=C(/C#N)C(=O)C(C)C)cc(Cl)c1O	–	inconclusive: 39.8 µM [inhibitor, single point]
CCn1nc(C)c2c(-c3ccccc3)cc(=O)n(C(C)C(=O)NCc3cccc(OC)c3)c21 (stereo not given)	–	inconclusive: 35.5 µM [inhibitor, partial curve, poor fit]
CCN(CC)CCNC(=O)c1ccc(Cn2c(SCc3ccccc3)nc3ccncc32)cc1	inactive: 0.0385%	–
CC(=O)Nc1ccc(NC(=O)Cn2ccn3nc4c(c3c2=O)CCCCC4)cc1	–	inconclusive: 31.6 µM [inhibitor, single point]
O=C(c1cnc2c(c1)N(Cc1ccccc1)CCC2)N1CC[S+](=O)([O-])CC1	–	inconclusive: 35.5 µM [inhibitor, partial curve, poor fit]
c1ccc(-c2nc(-c3ccncc3)n[nH]2)nc1	inactive: -3.44%	–
O=C(CC12CC3CC(CC(Br)(C3)C1)C2)OC(C(=O)c1c[nH]c2ccccc12)c1ccccc1 (stereo not given)	inactive: -15.2%	–
COc1cc(F)ccc1-c1ccc(=O)n(CC(=O)N(C)C2CCS(=O)(=O)C2)n1 (stereo not given)	inactive: -5.17%	–
O=C(N[C@H]1CCN2C(=O)c3cc(/C=C/c4ccccc4)ccc3NC(=O)[C@H]12)C1CCCC1	–	active: 31.6 µM
Cc1ccc(C2(O)CCN(CC(c3ccccc3)c3ccccc3)CC2)nc1	inactive: -19.2%	–
COc1ccc(NC(=O)CCSc2nc(-c3ccco3)cc(C(F)(F)F)n2)cc1	–	inconclusive: 25.1 µM [inhibitor, single point]
Cc1noc(C)c1-c1cc(-c2ccccc2C(F)(F)F)cn2cncc12	–	active: 39.8 µM
O=C(NCc1ccnc2[nH]ccc12)C1CCCC1	–	inconclusive: 39.8 µM [inhibitor, partial curve, poor fit]
O=C1NC(=NC2CCCC2)C2(CCCN(Cc3ccc(F)cc3)C2)N1c1cccnc1 (stereo not given)	inactive: 38.7% [at 115 µM]	–
CNCCN1C(=O)CC[C@H]2CN(c3nccc(C(F)(F)F)n3)CC[C@H]21	–	inconclusive: 7.94 µM [inhibitor, partial curve]
COc1ccc(NC(=O)CSc2ncccc2C(=O)O)cc1OC	–	inconclusive: 15.8 µM [inhibitor, partial curve, poor fit]
CCN(CC)CCNC(=O)c1ccc2c(c1)NC(=O)C(CS(=O)(=O)Cc1cccc(Br)c1)N2 (stereo not given)	–	inconclusive: 17.8 µM [inhibitor, partial curve, poor fit]
Cc1noc(-c2cn(C3CCN(C(=O)c4ccc[nH]4)C3)nn2)n1 (stereo not given)	inactive: -16.5%	–
Cc1cnc(NC(=O)c2csc(NC(C)C)n2)s1	inactive: 38.5%	–

SMILES	activity change, negative = inhibition	Potency
CN1CCC(N2CC[C@H](c3nc4ccc(C(F)(F)F)cc4[nH]3)C2)CC1	–	inconclusive: 39.8 µM [inhibitor, partial curve, poor fit]
Cc1cc2oc(C(=O)Nc3ccccc3C(F)(F)F)cc(=O)c2cc1C	inactive: 3.71%	–
C/C(CCc1oc2ccccc2c1-c1ccc(C)o1)=N\O	–	inconclusive: 17.8 µM [inhibitor, partial curve, poor fit]
CC(C)c1noc(-c2cn(C3CCN(C(=O)COc4ccccc4)CC3)nn2)n1	inactive: -5.79%	–
COC(=O)Cc1c(C)c2ccc(O)c(C)c2oc1=O	–	inconclusive: 28.2 µM [inhibitor, partial curve, poor fit]
Cc1nnc(N2CCCC(C(=O)NCc3ccccc3F)C2)c2nn(-c3ccc(Cl)cc3)c(C)c12 (stereo not given)	–	inconclusive: 3.98 µM [inhibitor, partial curve, poor fit]
COc1ccc(S(=O)(=O)Nc2ccc(C)n(CC(=O)Nc3ccccc3)c2=O)cc1	inactive: -8.45%	–
O=C(O)c1[nH]ncc1CN1CCc2[nH]nc(-c3ccc(-c4ccccc4)cc3)c2C1	–	inconclusive: 2.51 µM [inhibitor, partial curve, poor fit]
CCOC(=O)c1ccc(NC(=O)c2ccc3c(c2)C(=O)N(CC2CCCO2)C3=O)cc1 (stereo not given)	–	inconclusive: 39.8 µM [inhibitor, single point]
O=c1c2c(CO)c(-c3ccccc3)nn2ccn1CCOc1ccccc1	–	inconclusive: 28.2 µM [inhibitor, partial curve, poor fit]
COc1ccc2c(C)c(CCC(=O)NCc3ccc(S(N)(=O)=O)cc3)c(=O)oc2c1	–	inconclusive: 22.4 µM [inhibitor, partial curve, poor fit]
COCCCNc1nc2cc(OC)c(OC)cc2c2nc(-c3ccccc3)nn12	–	inconclusive: 39.8 µM [inhibitor, single point]
O=C(Nc1ccc([C@H]2OCC(=O)N(Cc3ccc(F)cc3)[C@@H]2CO)cc1)C1CC1	inactive: -0.906% [at 86.2 µM]	–
Cc1cc(C(=O)NC2CC2)c2c(C3CCCNC3)noc2n1 (stereo not given)	inactive: -27.3% [at 149 µM]	–
CN(C)c1cccc(-c2cnc3[nH]cc(CC(=O)N4CCOCC4)c3c2)c1	inactive: -29.4% [at 86.2 µM]	–
O=C(Nc1ccc2nc(SCc3ccccc3)sc2c1)c1ccccc1F	–	inconclusive: 39.8 µM [inhibitor, single point]
CCN1CCN(c2nc(Nc3ccccc3)c3cnn(-c4ccccc4)c3n2)CC1	inactive: -17.7%	–
O=C(Nc1ccc2oc(-c3cccnc3)nc2c1)c1ccc(-c2ccc(OC(F)(F)F)cc2)o1	–	inconclusive: 2.82 µM [inhibitor, full curve, poor fit]
CN(C)C1=C(C(=O)Nc2ccc(F)cc2)S(=O)(=O)c2ccccc21	inactive: 7.14%	–
N#Cc1ccc(COC(=O)c2ccccc2NCCO)cc1	–	inconclusive: 25.1 µM [inhibitor, partial curve, poor fit]
Cc1ccc(-c2cc(C(=O)Nc3cc(C)on3)c3ccccc3n2)cc1	–	inconclusive: 1.78 µM [inhibitor, partial curve, poor fit]
C[S+](=O)([O-])N1CCC(Cn2ccc3c(N4CCOCC4)nc(-c4cccc5[nH]ncc45)cc32)CC1	–	active: 12.6 µM
COc1cccc(CNC(=O)C(C)n2nc(-c3ccccc3)c3ccccc32)c1OC (stereo not given)	–	inconclusive: 39.8 µM [inhibitor, single point]
O=C(NC1CCN(c2cc(-c3ccc(F)cc3)[nH]n2)C1)c1ccc(Br)cc1 (stereo not given)	–	inconclusive: 4.47 µM [inhibitor, full curve]

SMILES	activity change, negative = inhibition	Potency
COC(=O)C1(C(=O)OC)C2C3C4CC5C6C4C2C6C1C53 (stereo not given)	inactive: 9.12%	–
CCCC(C(=O)NCc1coc(-c2cccs2)n1)c1ccccc1 (stereo not given)	–	inconclusive: 39.8 µM [inhibitor, single point]
Cc1ncccc1OC1(C(=O)NCc2cn3c(n2)SCC3)CCNCC1	–	inconclusive: 1.58 µM [inhibitor, full curve, poor fit]
CCc1cc(=O)oc2cc(OCC(=O)NCCC#N)ccc12	–	inconclusive: 22.4 µM [inhibitor, partial curve, poor fit]
COc1cccc(CNC(=O)CSc2c3c(nc4cc(Cl)ccc24)CCCC3)c1	–	inconclusive: 31.6 µM [inhibitor, single point]
CN(C)CCCN(C(=O)c1ccc2c(c1)OCCO2)c1nc2ccccc2s1	–	inconclusive: 31.6 µM [inhibitor, single point]
CCOc1ccc(NC(=O)c2nn(-c3cc(OC)cc(OC)c3)c(=O)c3ccccc23)cc1	inactive: 10.2%	–
COc1ccc(NC(=O)O[C@@H]2CO[C@H]3[C@@H]2OC[C@@H]3NC(=O)Nc2ccc(C(C)=O)cc2)cc1	inactive: -18.6%	–
COc1ccc(-c2noc3ncnc(N4CCC(C(=O)NCCN5CCCCC5)CC4)c23)cc1	inactive: 14.7%	–
COCC(=O)NC[C@H]1O[C@@H](CO)[C@@H](O)[C@H]1N1CCC(C)CC1	–	inconclusive: 31.6 µM [inhibitor, partial curve]
CCOC(=O)N1CCC2(CC1)NCCc1c2[nH]c2ccccc12	inactive: 17.6%	–
COC(=O)Cn1c(=O)c2cccn2c2cccnc21	–	inconclusive: 15.8 µM [inhibitor, partial curve, poor fit]
Cc1ccccc1NC(=O)CC(C)(C(=O)O)c1ccccc1 (stereo not given)	inactive: -13%	–
Nc1ncccc1CNC(=O)[C@H]1CCC[C@H](O)C1	–	active: 25.1 µM
CC[n+]1c(C)ccc2cc(C)ccc21	–	inconclusive: 28.2 µM [inhibitor, partial curve, poor fit]
CC(=O)Nc1ccc(NC(=O)CCc2ncc(-c3ccc(Cl)cc3)o2)cc1	inactive: 12.8%	–
CCCOc1cccc(C(=O)Nc2cc(C(C)(C)C)on2)c1	inactive: 3.6%	–
COc1ccc(-c2noc([C@@H]3Cc4nc[nH]c4CN3Cc3cccs3)n2)cc1	–	inconclusive: 35.5 µM [inhibitor, single point]
COc1ccc(NC(=O)Cn2cnc3c(oc4ccccc43)c2=O)cc1OC	–	inconclusive: 28.2 µM [inhibitor, single point]
COc1cc(Br)c(C(N)C(=O)O)cc1OC (stereo not given)	inactive: 2.88%	–
Cc1ccc2nc(C)cc(C(=O)OC(C)C(=O)NC(C)(C)C)c2c1 (stereo not given)	–	inconclusive: 31.6 µM [inhibitor, partial curve, poor fit]
Cc1cc2oc(C(=O)NCC(c3ccco3)N3CCOCC3)cc(=O)c2cc1Cl (stereo not given)	inactive: -0.673%	–
